Assay results: US20250289788A1, “HALOALKYL SULFONANILIDE COMPOUND AND HERBICIDE CONTAINING THE SAME” (SDS BIOTECH K.K., priority 2022, published 2025)
Some of these results come from one statement about several compounds together. For at least one compound, name, drawing or mass did not settle the structure.

What was measured:
Assay in all cases: Test Example 1: herbicidal effect test using paddy field flooding treatment
Assay type in all cases: in vivo
Conditions in all cases: water surface application, 21 days after treatment
[1] = test system: Echinochloa crus-galli var. oryzicola (EC)
[2] = test system: Schoenoplectiella juncoides (SJ)
Ammannia multiflora (AM) = test system: Ammannia multiflora (AM)
[3] = test system: Monochoria vaginalis (MV)

Measured: herbicidal efficacy (degree (%) of suppression of growth of terrestrial part)

O=C1c2c(F)cccc2CCN1Cc1ccccc1NS(=O)(=O)C(F)(F)F [Compound 3-2]
≥ 80%: [1]; dose 500 g a.i./ha | [2]; dose 250 g a.i./ha | Ammannia multiflora (AM); dose 16 g a.i./ha | [3]; dose 63 g a.i./ha

O=C1c2ccccc2CCN1Cc1ccccc1N(C(=O)OC1CCOC1)S(=O)(=O)C(F)(F)F (stereo not drawn) [Compound 3-199]
≥ 80%: [1]; dose 125 g a.i./ha | [2]; dose 125 g a.i./ha | Ammannia multiflora (AM); dose 31 g a.i./ha | [3]; dose 63 g a.i./ha

O=C1c2c(F)ccc(F)c2CCN1Cc1ccccc1N(C(=O)OCC(F)(F)F)S(=O)(=O)C(F)(F)F [Compound 3-179]
≥ 80%: [1]; dose 250 g a.i./ha | [2]; dose 63 g a.i./ha | Ammannia multiflora (AM); dose 16 g a.i./ha | [3]; dose 63 g a.i./ha

Cc1ccc(F)c2c1CCN(Cc1ccccc1NS(=O)(=O)C(F)(F)F)C2=O [Compound 3-66]
≥ 80%: [1]; dose 500 g a.i./ha | [2]; dose 250 g a.i./ha | Ammannia multiflora (AM); dose 63 g a.i./ha | [3]; dose 125 g a.i./ha

O=C1c2cc(F)ccc2CCN1Cc1ccccc1NS(=O)(=O)C(F)(F)F [Compound 3-19]
≥ 80%: [1]; dose 500 g a.i./ha | [2]; dose 250 g a.i./ha | Ammannia multiflora (AM); dose 63 g a.i./ha | [3]; dose 63 g a.i./ha

CC(C)C(=O)N(c1ccccc1CN1CCc2c(F)ccc(F)c2C1=O)S(=O)(=O)C(F)(F)F [Compound 3-100]
≥ 80%: [1]; dose 250 g a.i./ha | [2]; dose 500 g a.i./ha | Ammannia multiflora (AM); dose 16 g a.i./ha | [3]; dose 63 g a.i./ha

Cc1ccc2c(c1)CCCN(Cc1ccccc1NS(=O)(=O)C(F)(F)F)C2=O [Compound 5-6]
≥ 80%: [1]; dose 250 g a.i./ha | [2]; dose 500 g a.i./ha | Ammannia multiflora (AM); dose 63 g a.i./ha | [3]; dose 63 g a.i./ha

O=C1c2c(F)ccc(F)c2CCN1Cc1ccccc1N(C(=O)OCC(F)F)S(=O)(=O)C(F)(F)F [Compound 3-178, N-[2-[N-(2,2-difluoroethyl)oxycarbonyl-N-trifluoromethanesulfonyl]aminobenzyl]-5,8-difluoro-3,4-dihydroisoquinolin-1(2H)-one]
≥ 80%: [1]; dose 500 g a.i./ha | [2]; dose 500 g a.i./ha | Ammannia multiflora (AM); dose 16 g a.i./ha | [3]; dose 63 g a.i./ha

CCCCCOC(=O)N(c1ccccc1CN1CCc2c(F)ccc(F)c2C1=O)S(=O)(=O)C(F)(F)F [Compound 3-167]
≥ 80%: [1]; dose 500 g a.i./ha | [2]; dose 500 g a.i./ha | Ammannia multiflora (AM); dose 63 g a.i./ha | [3]; dose 500 g a.i./ha

Cc1ccc2c(c1)C(=O)N(Cc1ccccc1NS(=O)(=O)C(F)(F)F)C2 [Compound 2-32]
≥ 80%: [1]; dose 500 g a.i./ha | [2]; dose 500 g a.i./ha | Ammannia multiflora (AM); dose 250 g a.i./ha | [3]; dose 250 g a.i./ha

CCCCOC(=O)N(c1ccccc1CN1CCc2c(F)ccc(F)c2C1=O)S(=O)(=O)C(F)(F)F [Compound 3-163]
≥ 80%: [1]; dose 500 g a.i./ha | [2]; dose 500 g a.i./ha | Ammannia multiflora (AM); dose 63 g a.i./ha | [3]; dose 250 g a.i./ha

CC(C)SC(=O)N(c1ccccc1CN1CCc2cccc(F)c2C1=O)S(=O)(=O)C(F)(F)F [Compound 3-239]
≥ 80%: [1]; dose 500 g a.i./ha | [2]; dose 500 g a.i./ha | Ammannia multiflora (AM); dose 31 g a.i./ha | [3]; dose 500 g a.i./ha

COCCOC(=O)N(c1ccccc1CN1CCc2c(F)ccc(F)c2C1=O)S(=O)(=O)C(F)(F)F [Compound 3-228]
≥ 80%: [1]; dose 250 g a.i./ha | [2]; dose 500 g a.i./ha | Ammannia multiflora (AM); dose 16 g a.i./ha | [3]; dose 125 g a.i./ha

Cc1ccc(F)c2c1CCN(Cc1ccccc1N(C(=O)C1CC1)S(=O)(=O)C(F)(F)F)C2=O [Compound 3-108]
≥ 80%: [1]; dose 500 g a.i./ha | [2]; dose 500 g a.i./ha | Ammannia multiflora (AM); dose 16 g a.i./ha | [3]; dose 125 g a.i./ha

C=CC(C)OC(=O)N(c1ccccc1CN1CCc2c(F)ccc(F)c2C1=O)S(=O)(=O)C(F)(F)F (stereo not drawn) [Compound 3-189]
≥ 80%: [1]; dose 125 g a.i./ha | [2]; dose 63 g a.i./ha | Ammannia multiflora (AM); dose 16 g a.i./ha | [3]; dose 125 g a.i./ha

O=C1c2c(F)ccc(F)c2CCN1Cc1ccccc1N(S(=O)(=O)C(F)(F)F)S(=O)(=O)C(F)(F)F [Compound 3-252]
≥ 80%: [1]; dose 500 g a.i./ha | [2]; dose 250 g a.i./ha | Ammannia multiflora (AM); dose 16 g a.i./ha | [3]; dose 63 g a.i./ha

O=C1c2c(F)ccc(F)c2CCN1Cc1ccccc1N(C(=O)OC1CCOCC1)S(=O)(=O)C(F)(F)F [Compound 3-206]
≥ 80%: [1]; dose 500 g a.i./ha | [2]; dose 63 g a.i./ha | Ammannia multiflora (AM); dose 16 g a.i./ha | [3]; dose 63 g a.i./ha

CC(C)CC(=O)N(c1ccccc1CN1CCc2c(F)ccc(F)c2C1=O)S(=O)(=O)C(F)(F)F [Compound 3-101]
≥ 80%: [1]; dose 250 g a.i./ha | [2]; dose 125 g a.i./ha | Ammannia multiflora (AM); dose 16 g a.i./ha | [3]; dose 31 g a.i./ha

CS(=O)(=O)OCCOC(=O)N(c1ccccc1CN1CCc2c(F)ccc(F)c2C1=O)S(=O)(=O)C(F)(F)F [Compound 3-233]
≥ 80%: [1]; dose 500 g a.i./ha | [2]; dose 500 g a.i./ha | Ammannia multiflora (AM); dose 16 g a.i./ha | [3]; dose 63 g a.i./ha

CC(OC(=O)N(c1ccccc1CN1CCc2c(F)ccc(F)c2C1=O)S(=O)(=O)C(F)(F)F)C1CO1 (stereo not drawn) [Compound 3-217]
≥ 80%: [1]; dose 250 g a.i./ha | [2]; dose 63 g a.i./ha | Ammannia multiflora (AM); dose 16 g a.i./ha | [3]; dose 63 g a.i./ha

O=C1c2c(Cl)cccc2CCN1Cc1ccccc1NS(=O)(=O)C(F)(F)F [Compound 3-3]
≥ 80%: [1]; dose 500 g a.i./ha | [2]; dose 63 g a.i./ha | Ammannia multiflora (AM); dose 16 g a.i./ha | [3]; dose 125 g a.i./ha

CC(C)NC(=O)N(c1ccccc1CN1CCc2c(F)ccc(F)c2C1=O)S(=O)(=O)C(F)(F)F [Compound 3-244]
≥ 80%: [1]; dose 250 g a.i./ha | [2]; dose 500 g a.i./ha | Ammannia multiflora (AM); dose 16 g a.i./ha | [3]; dose 250 g a.i./ha

COc1ccc2c(c1)CCN(Cc1ccccc1NS(=O)(=O)C(F)(F)F)C2=O [Compound 3-41]
≥ 80%: [1]; dose 500 g a.i./ha | [2]; dose 63 g a.i./ha | Ammannia multiflora (AM); dose 63 g a.i./ha | [3]; dose 125 g a.i./ha

O=C1Cc2ccccc2N1Cc1ccccc1NS(=O)(=O)C(F)(F)F [Compound 8-1]
≥ 80%: [1]; dose 250 g a.i./ha | [2]; dose 250 g a.i./ha | Ammannia multiflora (AM); dose 125 g a.i./ha | [3]; dose 125 g a.i./ha

O=C1c2c(F)ccc(F)c2CCN1Cc1ccccc1N(C(=O)OCC1CCO1)S(=O)(=O)C(F)(F)F (stereo not drawn) [Compound 3-218]
≥ 80%: [1]; dose 125 g a.i./ha | [2]; dose 125 g a.i./ha | Ammannia multiflora (AM); dose 16 g a.i./ha | [3]; dose 125 g a.i./ha

O=C1c2c(F)ccc(F)c2CCN1Cc1ccccc1N(C(=O)c1ccco1)S(=O)(=O)C(F)(F)F [Compound 3-121]
≥ 80%: [1]; dose 500 g a.i./ha | [2]; dose 63 g a.i./ha | Ammannia multiflora (AM); dose 16 g a.i./ha | [3]; dose 63 g a.i./ha

O=C1c2c(F)ccc(F)c2CCN1Cc1ccccc1N(C(=O)OC(CF)CF)S(=O)(=O)C(F)(F)F [Compound 3-183]
≥ 80%: [1]; dose 250 g a.i./ha | [2]; dose 500 g a.i./ha | Ammannia multiflora (AM); dose 16 g a.i./ha | [3]; dose 63 g a.i./ha
